# Experimental data: PubChem BioAssay (Tox21)
# Where “and” joins values, the source holds several entries; their conditions need not be identical. Equal values may be shown once. This list was built around the results that the source calls inconclusive (neither active nor inactive); the mix of calls is not that of the screen. Potencies of inconclusive entries are doubtful fits and often do not repeat. The source holds several records for some structures; these can differ, active in one and inactive in another. Calls of active or inactive are those of the source. Unless noted, the call rests on the fitted dose curve; in most records, active means well fitted curve in the direction sought with a large enough effect in the repeat runs; inconclusive means weak or mixed curves; inactive means no such curve, though single readings can be large; an effect the other way counts as inactive or inconclusive.
# Key:
# [1] = qHTS assay to identify small molecule agonists of the constitutive androstane receptor (CAR) signaling pathway - cell viability counter screen (AID 1224836); further: nearly all actives have a fitted effect of over 45% in size
# Summary of the method: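 Compound titrations (15 concentrations) went onto HepG2-CYP2B6-hCAR cells 4 h after seeding, alongside PK11195 at a final 0.75 uM; a 23 h, 37 C/5% CO2 incubation preceded CellTiter-Fluor viability measurement.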
# [2] = qHTS assay to identify small molecule antagonists of the constitutive androstane receptor (CAR) signaling pathway - cell viability counter screen (AID 1224837); further: nearly all actives have a fitted effect of over 45% in size
# Summary of the method: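 HepG2-CYP2B6-hCAR cells, 2500/well, 4 hr pre-incubation; compound titration, 15 conc.; CITCO 50 nM final; 23 hr, 37 C/5% CO2; CellTiter-Fluor, fluorescence intensity.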
# [3] = target: Nuclear receptor subfamily 1 group I member 3 (Homo sapiens) (UniProt Q14994); assay: qHTS assay to identify small molecule antagonists of the constitutive androstane receptor (CAR) signaling pathway (AID 1224838);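 further: HepG2 cells stably expressing hCAR with CYP2B6 luciferase reporter stimulated by CITCO; nearly all actives have a fitted effect of over 40% in size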
# Summary of the method: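 HepG2-CYP2B6-hCAR cells; 4 h pre-incubation; cpd (15 conc) + CITCO 50 nM final; 24 h, 37 C/5% CO2; ONE-Glo, luminescence.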
# [4] = qHTS assay to identify small molecule antagonists of the estrogen related receptor signaling pathway with the pleiotropic PPARgamma coactivator (PGC) from Tox21 10K library - cell viability counter screen (AID 1224840; active means well fitted cell-killing curve with a large enough effect in the repeat runs, not every such curve was filed as active; inconclusive means weak or mixed curves, or effect the other way; inactive means no such curve, though single readings can be large or run the other way; further: nearly all actives have a fitted effect of over 40% in size)
# Summary of the method: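 PGC/ERR cells, 2,000/well; 6 h pre-incubation 37 C/5% CO2; cpd in DMSO via pin tool; 17.5 h 37 C; CellTiter-Fluor, 30 min; fluorescence.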
# [5] = qHTS assay to identify small molecule agonists of the estrogen related receptor signaling pathway with the pleiotropic PPARgamma coactivator (PGC) from Tox21 10K library (AID 1224842); further: nearly all actives have a fitted effect of over 15% in size
# Summary of the method: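 PGC/ERR reporter cells (NTP line) were seeded 2,000 per well, rested 6 h at 37 C/5% CO2, then pin-dosed with compounds in DMSO for 18 h at 37 C; luciferase read by One-Glo luminescence after 30 min at room temperature.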
# [6] = target: Thyrotropin receptor (Homo sapiens) (UniProt P16473); assay: qHTS assay to identify small molecule agonists of the thyroid stimulating hormone receptor (TSHR) signaling pathway (AID 1224843; calls by dose curve; further: nearly all actives have a fitted effect of over 45% in size; on activation: on the % scale 0 is the no-effect control and ±100 the full control effect); details: TSHR-HEK293 cells, cAMP HTRF, agonist mode, 30 min; activation: at 92.4 µM (top of the series) unless noted
# Summary of the method: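 TSHR-expressing HEK293 cells (800 per well) were exposed to compounds for 30 min at room temperature. cAMP was then detected by HTRF competition with cAMP-d2 and anti-cAMP cryptate, read after 1 h at room temperature. Fifteen concentrations, triplicate.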
# [7] = qHTS assay to identify small molecule agonists of the hypoxia (HIF-1) signaling pathway - cell viability counter screen (AID 1224844; calls by dose curve; further: nearly all actives have a fitted effect of over 50% in size)
# Summary of the method: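 ME-180 HRE-bla cells, 2,000/well, 0.5% dialyzed FBS; 5 hr settle, 17 hr compound at 37C/5% CO2; CCF4-AM reporter read first, then CellTiter-Glo luminescence after 30 min RT.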
# [8] = qHTS assay to identify small molecule agonists of H2AX (AID 1224845; active means well fitted activation curve with a large enough effect in the signal ratio in the repeat runs, not every such curve was filed as active; inconclusive means weak or mixed curves; the % refers to the signal ratio; on activation (H2AX phosphorylation): on the % scale 0 is the no-effect control and ±100 the full control effect); details: CHO-K1 phospho-H2AX Ser139 HTRF, 3 h; activation (H2AX phosphorylation): at 154 µM (top of the series) unless noted
# Summary of the method: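 Wild-type CHO-K1 cells plated overnight, then exposed 3 hr at 37C to compounds at 15 concentrations (0.76% DMSO). Lysed, then HTRF anti-pH2AX(S139)-cryptate/anti-H2AX-d2 detection after 24 hr at room temperature; emissions 665 and 620 nm.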
# [9] = target: Nuclear receptor subfamily 1 group I member 3 (Homo sapiens) (UniProt Q14994); assay: qHTS assay to identify small molecule agonists of the constitutive androstane receptor (CAR) signaling pathway (AID 1224839); further: nearly all actives have a fitted effect of over 15% in size
# Summary of the method: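 In this screen, CAR-driven CYP2B6 promoter activity is measured by luminescence in HepG2-CYP2B6-hCAR cells after 24 h with test compounds and 0.75 uM PK11195 (final concentration).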
# [10] = qHTS assay to identify small molecule antagonists of the estrogen related receptor signaling pathway with the pleiotropic PPARgamma coactivator (PGC) from Tox21 10K library (AID 1224841; call rule not given here; further: actives are mostly falling curves and most rising ones were filed inactive; nearly all actives have a fitted effect of over 50% in size)
# Summary of the method: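 PGC/ERR cell line, 2,000 cells/well; 6 h pre-incubation 37 C/5% CO2; compounds (DMSO) pinned in; 18 h, 37 C; One-Glo, 30 min RT; luminescence.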
# Potency means the concentration at half of the fitted maximal effect; tags describe the fitted curve by direction and shape or compound fluorescence and quenching.
# Chain of UniProt Q14994 (Q14994 whole entry, looked up): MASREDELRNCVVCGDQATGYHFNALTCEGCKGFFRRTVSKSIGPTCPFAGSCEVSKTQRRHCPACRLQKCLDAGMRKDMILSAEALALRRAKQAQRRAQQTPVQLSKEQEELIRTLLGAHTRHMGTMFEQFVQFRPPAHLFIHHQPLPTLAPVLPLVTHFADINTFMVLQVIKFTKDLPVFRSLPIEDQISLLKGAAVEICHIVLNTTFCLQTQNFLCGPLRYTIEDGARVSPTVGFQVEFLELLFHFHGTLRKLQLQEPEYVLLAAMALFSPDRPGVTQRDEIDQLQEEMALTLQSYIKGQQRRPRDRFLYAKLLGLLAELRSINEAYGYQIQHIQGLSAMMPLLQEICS
# Chain of UniProt P16473 (P16473 whole entry, looked up): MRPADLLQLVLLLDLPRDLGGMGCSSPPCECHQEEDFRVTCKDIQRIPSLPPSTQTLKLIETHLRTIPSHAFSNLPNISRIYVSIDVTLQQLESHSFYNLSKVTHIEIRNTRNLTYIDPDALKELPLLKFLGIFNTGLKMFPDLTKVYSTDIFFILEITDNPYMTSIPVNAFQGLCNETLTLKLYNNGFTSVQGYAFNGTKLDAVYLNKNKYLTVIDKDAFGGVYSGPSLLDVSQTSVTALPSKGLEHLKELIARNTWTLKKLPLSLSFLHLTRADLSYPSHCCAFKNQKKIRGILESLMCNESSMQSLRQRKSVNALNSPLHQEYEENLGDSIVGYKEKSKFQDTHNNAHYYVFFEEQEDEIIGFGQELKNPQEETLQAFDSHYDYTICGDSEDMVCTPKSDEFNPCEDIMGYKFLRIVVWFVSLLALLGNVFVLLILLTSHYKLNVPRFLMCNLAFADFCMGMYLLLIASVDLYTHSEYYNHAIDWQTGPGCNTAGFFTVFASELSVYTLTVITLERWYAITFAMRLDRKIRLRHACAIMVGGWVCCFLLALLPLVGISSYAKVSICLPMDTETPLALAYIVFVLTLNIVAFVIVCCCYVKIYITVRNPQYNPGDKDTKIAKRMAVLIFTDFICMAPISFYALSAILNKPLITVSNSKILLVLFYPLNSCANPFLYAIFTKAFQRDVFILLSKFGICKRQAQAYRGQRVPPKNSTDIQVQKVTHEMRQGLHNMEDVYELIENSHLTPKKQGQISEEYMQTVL
smiles,measurement,setting,value
OCCNCc1ccccc1,Potency,[1],inactive
Cn1sccc1=O,Potency,[1],inactive
same,Potency,[2],"inconclusive: 24.3 µM [cytotoxic, full curve]"
same,Potency,[3],"inconclusive: 13.7 µM [inhibitor, full curve, poor fit]"
same,Potency,[4],inconclusive: 61.1 µM [cytotoxic]
same,Potency,[5],"inconclusive: 68.6 µM [activator, single point] and inconclusive: 77 µM [activator, single point]"
same,activation,[6],inconclusive: 13.7%
same,Potency,[7],"inconclusive: 21.9 µM [cytotoxic, single point] and inconclusive: 61.6 µM [cytotoxic, single point]"
same,Potency,[8],"inconclusive: 113 µM [activator] and inconclusive: 127 µM [activator, single point]"
O=C(O)c1cc(=O)c2ccccc2o1,Potency,[1],inactive
same,Potency,[2],inactive
SCCc1cnccn1,Potency,[1],inactive
COC(=O)Nc1nc2ccc(C(=O)c3cccs3)cc2[nH]1,Potency,[1],active: 11.9 µM
same,Potency,[2],"inconclusive: 4.22 µM [cytotoxic, partial curve, poor fit]"
same,Potency,[9],"inconclusive: 33.5 µM [activator, single point]"
same,Potency,[5],active: 3.35 µM
same,Potency,[7],"inconclusive: 0.151 µM [rising, full curve]"
same,Potency,[8],"inconclusive: 55.2 µM [fluorescent, single point]"
CC(C)(C)NCC(O)COc1ccccc1OCC1CCCO1 (stereo unspecified),Potency,[1],inactive
OCCN1CCN(CCCN2c3ccccc3C=Cc3ccccc32)CC1,Potency,[1],"inconclusive: 33.5 µM [cytotoxic, single point]"
same,Potency,[2],"inconclusive: 21.1 µM [cytotoxic, partial curve]"
same,Potency,[7],inactive
Oc1cccc2c(O)cccc12,Potency,[1],"inconclusive: 48.6 µM [cytotoxic, partial curve, poor fit]"
same,Potency,[2],"inconclusive: 68.6 µM [cytotoxic, partial curve, poor fit]"
same,Potency,[10],active: 2.73 µM
same,Potency,[7],"inconclusive: 54.9 µM [cytotoxic, single point]"
same,Potency,[8],"inconclusive: 63.5 µM [falling, partial curve]"
C=CC(C)(C)CC(=O)OC,Potency,[1],"inconclusive: 3.87 µM [cytotoxic, full curve]"
same,Potency,[2],"inconclusive: 1.73 µM [cytotoxic, full curve]"
same,activation (H2AX phosphorylation),[8],inconclusive: 4.59%
CCO[Si](OCC)(OCC)OCC,Potency,[1],inactive
same,Potency,[3],inactive
same,Potency,[6],inactive
CN1CCN(Cc2cc(-c3ccc4[nH]c(=O)oc4c3)co2)[C@@H](c2ccc(F)cc2)C1,Potency,[1],"inconclusive: 58.8 µM [cytotoxic, single point]"
same,Potency,[2],"inconclusive: 52.4 µM [cytotoxic, partial curve]"
same,Potency,[6],active: 13.2 µM
same,Potency,[7],"inconclusive: 52.9 µM [cytotoxic, partial curve, poor fit]"
O=S1(=O)OC(c2ccc(O)cc2)(c2ccc(O)cc2)c2ccccc21,Potency,[1],active: 30.6 µM and active: 27.3 µM and active: 33.5 µM
same,Potency,[3],"inconclusive: 54.5 µM [inhibitor, partial curve]"
same,Potency,[10],active: 54.5 µM and active: 61.1 µM
O=C(O)CN(CCN(CC(=O)O)CC(=O)O)CC(=O)O,Potency,[1],"inconclusive: 3.45 µM [cytotoxic, single point]"
same,Potency,[2],"inconclusive: 2.44 µM [cytotoxic, partial curve, poor fit]"
same,Potency,[8],active: 4.52 µM
CCN(CCC#N)c1ccc(N=Nc2c(Cl)cc([N+](=O)[O-])cc2Cl)cc1,Potency,[1],"inconclusive: 27.3 µM [cytotoxic, partial curve]"
same,Potency,[2],"inconclusive: 30.6 µM [cytotoxic, partial curve]"
same,Potency,[4],"inconclusive: 27.3 µM [cytotoxic, partial curve]"
same,Potency,[6],inconclusive: 61.1 µM [activator]
CC(C)=CCC1=C(O)c2ccccc2C(=O)C1=O,Potency,[1],"inconclusive: 48.3 µM [cytotoxic, partial curve]"
same,Potency,[2],"inconclusive: 48.3 µM [cytotoxic, partial curve, poor fit]"
same,Potency,[9],active: 27.1 µM
same,Potency,[6],"inconclusive: 24.2 µM [activator, full curve]"
same,Potency,[8],inconclusive: 50.2 µM [partial curve]
CN(C)CCCN1c2ccccc2CCc2ccccc21,Potency,[1],"inconclusive: 10.6 µM [cytotoxic, partial curve]"
same,Potency,[2],"inconclusive: 48.6 µM [cytotoxic, partial curve]"
same,Potency,[7],"inconclusive: 16.9 µM [cytotoxic, partial curve]"
COc1cc2ncnc(Nc3ccc(F)c(Cl)c3)c2cc1OCCCN1CCOCC1,Potency,[1],"inconclusive: 21.1 µM [cytotoxic, partial curve]"
same,Potency,[2],"inconclusive: 26.6 µM [cytotoxic, partial curve]"
same,Potency,[4],"inconclusive: 23.7 µM [cytotoxic, partial curve]"
same,Potency,[10],inconclusive: 21.1 µM
same,Potency,[6],inactive
same,Potency,[7],"inconclusive: 16.9 µM [cytotoxic, partial curve]"
O=C1c2c(O)ccc(Nc3ccc(CCO)cc3)c2C(=O)c2c([N+](=O)[O-])ccc(O)c21,Potency,[1],"inconclusive: 30.6 µM [cytotoxic, partial curve]"
same,Potency,[2],"inconclusive: 54.5 µM [cytotoxic, partial curve]"
same,Potency,[4],"inconclusive: 48.6 µM [cytotoxic, partial curve]"
same,activation,[6],inconclusive: 4.16%
same,Potency,[7],"inconclusive: 38.9 µM [cytotoxic, partial curve]"
same,Potency,[8],"inconclusive: 50.5 µM [cytotoxic, partial curve]"
Nc1ccc(N=Nc2ccc(N)cc2)cc1,Potency,[1],"inconclusive: 30.6 µM [cytotoxic, partial curve, poor fit]"
same,Potency,[2],"inconclusive: 27.3 µM [cytotoxic, partial curve]"
same,Potency,[4],"inconclusive: 27.3 µM [cytotoxic, partial curve]"
same,Potency,[7],"inconclusive: 9.77 µM [cytotoxic, partial curve, poor fit]"
same,Potency,[8],"inconclusive: 22.5 µM [falling, partial curve]"
Nc1cc(Cl)c(N)c(Cl)c1,Potency,[1],"inconclusive: 68 µM [cytotoxic, partial curve, poor fit]"
same,Potency,[3],"inconclusive: 76.3 µM [inhibitor, single point]"
same,Potency,[9],"inconclusive: 34.4 µM [activator, partial curve]"
same,activation,[6],inconclusive: -35.9%
Nc1ccc(NCCO)c([N+](=O)[O-])c1,Potency,[1],"inconclusive: 54.5 µM [cytotoxic, partial curve]"
same,Potency,[2],"inconclusive: 54.5 µM [cytotoxic, partial curve]"
same,Potency,[4],"inconclusive: 61.1 µM [cytotoxic, partial curve]"
same,Potency,[6],"inconclusive: 17.2 µM [falling, full curve]"
same,Potency,[8],"inconclusive: 22.5 µM [cytotoxic, full curve]"
CC(=O)OCCC(C)CC(C)(C)C (stereo unspecified),Potency,[1],inactive
same,Potency,[3],"inconclusive: 48.6 µM [inhibitor, partial curve]"
same,Potency,[8],"inconclusive: 22.5 µM [rising, single point]"
Oc1ccc(N=Nc2ccccc2)cc1,Potency,[1],inconclusive: 55.2 µM [cytotoxic]
same,Potency,[2],"inconclusive: 43.8 µM [cytotoxic, partial curve, poor fit]"
same,Potency,[9],active: 27.7 µM
same,Potency,[6],active: 49.2 µM
same,Potency,[8],"inconclusive: 129 µM [falling, single point]"
O=C1N=C(O)CN1/N=C/c1ccc(-c2ccc([N+](=O)[O-])cc2)o1,Potency,[1],"inconclusive: 48.6 µM [cytotoxic, partial curve] and inconclusive: 21.1 µM [cytotoxic, partial curve, poor fit]"
same,Potency,[2],"inconclusive: 30.6 µM [cytotoxic, partial curve]"
same,Potency,[6],inactive
same,Potency,[8],"inconclusive: 101 µM [falling, partial curve]"
Nc1ccc2c(O)cc(S(=O)(=O)O)cc2c1,Potency,[1],"active: 21.7 µM and inconclusive: 68.6 µM [cytotoxic, partial curve, poor fit]"
same,Potency,[3],active: 3.86 µM and active: 686 nM
same,Potency,[7],"inconclusive: 17.4 µM [cytotoxic, partial curve] and inconclusive: 27.5 µM [cytotoxic, partial curve]"
CC(=O)Oc1cccc2c1C(=O)c1c(OC(C)=O)cc(C(=O)O)cc1C2=O,Potency,[1],inconclusive: 29.8 µM [cytotoxic]
same,Potency,[2],inconclusive: 26.6 µM [cytotoxic]
same,Potency,[8],"inconclusive: 49.2 µM [falling, partial curve]"
Cc1c(-c2ccc(O)cc2)n(Cc2ccc(OCCN3CCCCCC3)cc2)c2ccc(O)cc12,Potency,[1],"inconclusive: 33.5 µM [cytotoxic, single point]"
same,Potency,[2],"inconclusive: 33.5 µM [cytotoxic, single point]"
same,Potency,[7],inconclusive: 26.8 µM [cytotoxic]
CCN(CC)C(=O)/C(C#N)=C/c1cc(O)c(O)c([N+](=O)[O-])c1,Potency,[1],"inconclusive: 21.1 µM [cytotoxic, partial curve]"
same,Potency,[2],"inconclusive: 15 µM [cytotoxic, partial curve]"
same,Potency,[4],"inconclusive: 23.7 µM [cytotoxic, partial curve]"
same,Potency,[8],inconclusive: 55.2 µM
C[C@@H]1O[C@@H](OC[C@H]2O[C@@H](Oc3c(-c4ccc(O)c(O)c4)oc4cc(O)cc(O)c4c3=O)[C@H](O)[C@@H](O)[C@@H]2O)[C@H](O)[C@H](O)[C@H]1O,Potency,[1],"inconclusive: 54.9 µM [cytotoxic, partial curve]"
same,Potency,[2],inconclusive: 54.9 µM [cytotoxic]
same,Potency,[4],"inconclusive: 34.6 µM [cytotoxic, partial curve, poor fit]"
same,Potency,[6],inactive
same,Potency,[8],"inconclusive: 32.1 µM [cytotoxic, full curve] and inconclusive: 55.2 µM [cytotoxic]"
